# Several values for one entry are separate records, joined by “and”; a condition that tells them apart may be missing. Identical values can stand only once. Hit rate of the full screen: of about 94,000 compounds, about 6,200 (6.6%) were called active. Inconclusive results, whose numbers are uncertain, are shown with a selection of clear calls. Calls come from the whole dose curve; as a rule, active = well fitted inhibition curve with a large enough effect; inconclusive = small, poorly fitted or top-dose-only effect; inactive = flat fitted curve, though single readings scatter. Where the call is inconclusive, the potency comes from a doubtful curve fit.
# Assay: Cytotoxic Profiling in HEK 293 Cell Line of Diverse Libraries Using Quantitative High-Throughput Screening; note: nearly all actives have a fitted effect of over 60% in size
# Conditions: HEK 293 viability, ATP luminescence (CellTiter-Glo), 48-72 h; activity change, negative = cytotoxicity: at 115 µM (top of the series) unless noted; series mostly up to 115 µM
# Summary of the method: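 HEK 293 cells seeded at 250 cells/well were exposed to compound for 48 or 72 hr at 37 degree Celsius. Viability taken as ATP content by CellTiter-Glo luminescence.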
# % is set by controls: 0 for no effect and ±100 for the full control effect; potency is the fitted concentration of half-maximal effect; tags give direction and shape of the fitted curve.
SMILES,"activity change, negative = cytotoxicity",Potency,outcome
CCOc1ccccc1NC(=O)N1CCC(N2CC3CC(C2)[C@H]2CCCC(=O)N2C3)CC1 (some centres undefined),inactive: 4.96%,–,–
Cc1ccc(NC(=O)Cn2c(=O)n(-c3ccccc3)c(=O)c3c2cc(C)n3C)cc1,–,active: 39.8 µM,–
COc1ccccc1Cn1c(=O)c(C(=O)N2CCN(C(=O)Nc3ccccc3)CC2)nc2cccnc21,inactive: 0.813%,–,–
O=C(CN1C(=O)NC2(CCCCC2)C1=O)N1CCN(c2ccccc2)CC1,–,"inconclusive: 28.2 µM [inhibitor, single point]",–
CC(C)CN(CC1CN(C(=O)Nc2cccc(Cl)c2)CCO1)C(=O)c1ccccc1 (centres undefined),–,"inconclusive: 56.2 µM [inhibitor, partial curve, poor fit]",–
COCCC1(NS(=O)(=O)c2cccnc2)CCN(S(C)(=O)=O)CC1,inactive: -13.3%,–,–
C[S+](=O)([O-])c1ccc(-c2nnc3ccc(C(=O)NCCc4ccccc4)cn23)cc1,inactive: -12.8%,–,–
CC(=O)NC1CCN(Cc2cccc(-c3ccc(F)cc3F)c2)CC1,–,"inconclusive: 50.1 µM [inhibitor, partial curve, poor fit]",–
O=C(C1CCCC1)N1CCCN(c2ccc3nnc(C4CC4)n3n2)CC1,inactive: -25.3%,–,–
CCC(C)C1=NS(=O)(=O)c2cc(NC(=O)C3CC3)ccc2N1c1ccccc1 (centres undefined),–,"inconclusive: 79.4 µM [inhibitor, partial curve, poor fit]",–
CNC1CCCc2ccccc21 (centres undefined),–,–,inactive [at 230 µM]
COCCc1noc(-c2nc(-c3ccc(OC)cc3)no2)n1,–,"inconclusive: 89.1 µM [inhibitor, single point]",–
COCCNC(=O)C[C@@H]1c2nc(NC(=O)c3ccc(F)cc3)sc2C[C@@H]2[C@](C)(CO)[C@H](O)CC[C@]21C,inactive: 1.03%,–,–
COc1cccc(-c2nccn2C2COC3(CCCC3)C2)c1OC (centres undefined),–,"inconclusive: 39.8 µM [inhibitor, full curve, poor fit]",–
CN(Cc1cccc(C(F)(F)F)c1)S(=O)(=O)c1cccs1,–,active: 89.1 µM,–
CCC1(N2CCN(S(=O)(=O)c3ccc(F)c(C)c3)CC2)CCN(C(=O)C(C)C)C1 (centres undefined),–,"inconclusive: 50.1 µM [inhibitor, partial curve, poor fit]",–
CNC(=O)C1CCCN1C(=O)c1cccc(-c2ccccn2)c1 (centres undefined),inactive: -19.7% [at 172 µM],–,–
O=C(Cc1ccc(F)cc1)N1CCC(c2nn(-c3ccc(Cl)cc3)c(=O)[nH]2)CC1,–,"inconclusive: 89.1 µM [inhibitor, single point]",–
COc1ccc(-c2cccc(C(=O)N3CCN(c4ncccn4)CC3)c2)nn1,inactive: -0.864%,–,–
COc1ccc(CCNC(=O)CN2C(=O)NC(c3ccccc3Cl)C3=C2COC3=O)cc1OC (centres undefined),–,"inconclusive: 50.1 µM [inhibitor, partial curve, poor fit]",–
O=C(NCCN1CCOCC1)c1ccc(N2CC3CC(C2)[C@H]2CCCC(=O)N2C3)nc1 (some centres undefined),inactive: 1.97%,–,–
COc1ccccc1Nc1ccnc(N2CCC(C(=O)NCc3cccs3)CC2)n1,–,"inconclusive: 25.1 µM [inhibitor, full curve]",–

SMILES,"activity change, negative = cytotoxicity",Potency,outcome
COc1cccc(CN2CCOC3CCN(C(=O)c4cccnc4)CC3C2=O)c1 (centres undefined),inactive: -13% [at 172 µM],–,–
O=S(=O)(c1cc(F)ccc1F)N1CCC(C2CCNC2)CC1 (centres undefined),inactive: -18.7%,–,–
CCOc1ccc(CCNc2nc(-c3ccccc3)no2)cc1,–,"inconclusive: 56.2 µM [inhibitor, partial curve, poor fit]",–
O=C(NC1CC1)c1nc(-c2cccc(C(F)(F)F)c2)c2ccccn12,–,"inconclusive: 44.7 µM [inhibitor, partial curve]",–
Cc1cc2nc3n(c(=O)c2n1CC(=O)NCc1cccc(Br)c1)CCCCC3,–,"inconclusive: 89.1 µM [inhibitor, single point]",–
O=C1NCc2ccccc2CC12CCN(Cc1c[nH]c3ccccc13)C2 (centres undefined),–,"inconclusive: 89.1 µM [inhibitor, partial curve, poor fit]",–
CNc1nccc(N2CCC(CC(=O)N(C)CCCc3c(C)nn(C)c3C)CC2)n1,–,"inconclusive: 7.94 µM [inhibitor, full curve, poor fit]",–
Cc1nn(-c2ccccc2)c2c1C(C(C)C)N(C1CN(C(=O)c3ccc(F)cc3)C1)C2=O (centres undefined),–,"inconclusive: 50.1 µM [inhibitor, partial curve, poor fit]",–
CCc1cc(=O)n(CC(=O)Nc2cc(OC)ccc2OC)c(-c2ccccc2)n1,–,"inconclusive: 35.5 µM [inhibitor, partial curve, poor fit]",–
O=C(NC1CCN(c2cc(-c3ccc(F)cc3)[nH]n2)CC1)c1cc(F)ccc1Cl,–,"inconclusive: 31.6 µM [inhibitor, full curve]",–
CCNC(=O)N1C[C@@H]2CCCN3CCC[C@@H]([C@H]23)[C@H]1CCCC(=O)Nc1ccccc1,inactive: -4.31%,–,–
O=C(N1CCN(Cc2ccccc2)CC1)C1(c2ccc(Cl)cc2)CCOCC1,–,"inconclusive: 79.4 µM [inhibitor, single point]",–
O=C1CCC2(CCN(C/C=C/c3ccccc3)CC2)CN1CCCn1ccnc1,–,"inconclusive: 28.2 µM [inhibitor, partial curve, poor fit]",–
Cn1cc(CN2CCNc3cc(-c4ccccc4)ncc3C2)cn1,–,"inconclusive: 112 µM [inhibitor, single point]",–
CC1=NS(=O)(=O)N(Cc2ccccc2)C=C1C(=O)OCc1noc(-c2ccc(C)c(C)c2)n1,–,"inconclusive: 15.8 µM [inhibitor, full curve, poor fit]",–
O=C1N[C@@H]2CCN(S(=O)(=O)c3ccccc3)[C@@H]2C(=O)N1c1ccc(Oc2ccccc2)cc1,inactive: -20.7%,–,–
CCN1C(=O)C2CC3(CCN(S(=O)(=O)c4cnn(CC)c4)CC3)CN2C1=O (centres undefined),inactive: -5.75%,–,–
Cc1ccc(OCC(=O)N2CC(c3noc(COc4ccccc4)n3)C2)cc1,–,"inconclusive: 56.2 µM [inhibitor, partial curve, poor fit]",–
Cc1nnc(CN2CCC(N3CCCC(C(=O)NCCc4ccccc4)C3)CC2)o1 (centres undefined),–,–,inactive
COc1ccccc1N1CCCc2ncc(C(=O)Nc3cccnc3)cc21,–,active: 100 µM,–
O=S(=O)(c1ccc(F)cc1)N1CCCC(Cn2c(C3CC3)nc3cccnc32)C1 (centres undefined),–,"inconclusive: 79.4 µM [inhibitor, single point]",–
Oc1ccccc1CN1C[C@H](O)C[C@H]1c1nc(-c2ccccc2)no1,–,"inconclusive: 112 µM [inhibitor, single point]",–

SMILES,"activity change, negative = cytotoxicity",Potency,outcome
Cc1ccc([S+](=O)([O-])NC2CCCN(c3ccc4nnc(C)n4n3)C2)cc1 (centres undefined),–,"inconclusive: 39.8 µM [inhibitor, partial curve, poor fit]",–
CCN(CC)C1CCN(C(=O)c2cc(OC)ccc2OC2CCN(C(=O)C3CC3)CC2)C1 (centres undefined),inactive: -2.24%,–,–
CNC(=O)C1=NO[C@@H]2CN(CCc3ccccc3)C[C@H]12,–,"inconclusive: 141 µM [inhibitor, single point]",–
Cc1ccccc1C(=O)N1CCN(C(=O)c2nc3cccnc3n(C3CC3)c2=O)CC1,–,–,inactive
O=c1ccc(N2CCC(NS(=O)(=O)c3ccc(F)c(F)c3)CC2)nn1CC1CC1,–,"inconclusive: 44.7 µM [inhibitor, partial curve, poor fit]",–
O=[S+]1([O-])NC2(CCCN(Cc3ccc(OC(F)(F)F)cc3)C2)CNc2ccccc21 (centres undefined),inactive: -21.8%,–,–
CCOC(=O)CN1C(=O)CCN(C(=O)c2ccccc2OCC)CC(OC)c2ccccc21 (centres undefined),inactive: -37.1% [at 57.5 µM],–,–
CN1C(=O)[C@@H]2C[C@@H](CN2Cc2ccnc3ccccc23)Oc2ccccc21,–,"inconclusive: 70.8 µM [inhibitor, partial curve]",–
COc1cc(C(=O)N2CCCN(c3cc(-c4ccc(C)c(C)c4)[nH]n3)CC2)cc(OC)c1OC,–,"inconclusive: 89.1 µM [inhibitor, single point]",–
COc1cccc(CN2CCc3c(cc(C(=O)Nc4cc(C)ccc4OC)n3C)C2)c1,–,active: 31.6 µM,–
O=c1n(-c2ccc(Cl)cc2)nc2n1CCN(Cc1ccccc1)C2,–,"inconclusive: 4.47 µM [inhibitor, full curve, poor fit]",–
O=C(NCc1ccc(F)cc1)C1CCN(c2nccc(Nc3ccccc3F)n2)CC1,–,"inconclusive: 44.7 µM [inhibitor, partial curve, poor fit]",–
CCn1cc(S(=O)(=O)NC2CCc3nn(CC4CC4)c(=O)n3CC2)cn1 (centres undefined),–,"inconclusive: 79.4 µM [inhibitor, partial curve, poor fit]",–
CCNC(=O)C(C)(C)Oc1nn(Cc2cccc(Cl)c2)c2ccccc12,–,"inconclusive: 112 µM [inhibitor, partial curve, poor fit]",–
O=C(NCc1ccc(Cl)cc1)C1CCN(C(=O)c2ccc(-c3cncnc3)cc2)CC1,–,"inconclusive: 100 µM [inhibitor, single point]",–
COc1cccc(CN(C)C(=O)c2cn(Cc3ccc(Cl)cc3)nn2)c1,–,"inconclusive: 89.1 µM [inhibitor, single point]",–
COc1ccccc1-c1[nH]nc2ncc(-c3ccc(C)cc3)nc12,–,"inconclusive: 112 µM [inhibitor, partial curve, poor fit]",–
CCCCS(=O)(=O)N1CCCC(Cn2c(C3CC3)nc3cccnc32)C1 (centres undefined),–,"inconclusive: 89.1 µM [inhibitor, partial curve, poor fit]",–
COC(=O)N(C)Cc1cccc(N2CCN([S+](=O)([O-])c3c(Cl)cccc3Cl)CC2)c1,–,"inconclusive: 50.1 µM [inhibitor, partial curve, poor fit]",–
Cc1ccccc1C(=O)N1CCC(C(=O)N2CCC(N3Cc4ccccc4C3=O)CC2)CC1,–,"inconclusive: 50.1 µM [inhibitor, partial curve, poor fit] and inconclusive: 89.1 µM [inhibitor, single point]",–
